# Assay results taken from PubChem BioAssay AID504845 (National Center for Advancing Translational Sciences (NCATS), 2011).
# Out of some 390,000 compounds screened, about 150 (0.038%) were called active. Inconclusive results, whose numbers are uncertain, are shown with a selection of clear calls. Calls come from the whole dose curve; as a rule, active = well fitted inhibition curve with a large enough effect; inconclusive = small, poorly fitted or top-dose-only effect; inactive = no such curve, though single readings can be large or run the other way. Potencies of inconclusive entries are doubtful fits and often do not repeat.
# Target: Regulator of G-protein signaling 4 (Homo sapiens) (UniProt P49798)
# Sequence of UniProt P49798 (P49798 whole entry, looked up): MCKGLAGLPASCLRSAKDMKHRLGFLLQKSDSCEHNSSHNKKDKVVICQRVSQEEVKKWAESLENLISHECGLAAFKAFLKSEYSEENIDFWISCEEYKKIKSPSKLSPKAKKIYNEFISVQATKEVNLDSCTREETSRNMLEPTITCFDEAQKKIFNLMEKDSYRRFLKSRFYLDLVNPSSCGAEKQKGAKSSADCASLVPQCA
# Assay: Inhibitors of Regulator of G Protein Signaling (RGS) 4: qHTS; note: nearly all actives have a fitted effect of over 75% in size
# Conditions: Transcreener GDP fluorescence polarization, RGS4-accelerated GTP hydrolysis; series mostly up to 114 µM; activity change, negative = inhibition: at the top concentration
# Procedure, shortened: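 MLSMR compounds (23 nl, pin-transferred) preincubated 10 min at room temperature with a 500nM (2x) first reagent, then RGS4 at 900nM (2x) plus Transcreener GDP mix added; fluorescence polarization (620/688 nm) read before and after 90 min at 30 °C.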
# % is set by controls: 0 for no effect and ±100 for the full control effect; potency is the fitted concentration of half-maximal effect; tags give direction and shape of the fitted curve.
Compound,Potency,"activity change, negative = inhibition"
N=c1c(C(=O)NCc2ccc(F)cc2)cc2c(=O)n3ccccc3nc2n1Cc1ccco1,"inconclusive: 100 µM [inhibitor, single point]",–
O=C(Nc1ccc(Br)cc1)c1cccc(OC(=S)N2CCOCC2)c1,–,inactive: -1.73%
CC(C)(C)c1ccc(-c2nnc3sc(-c4ccccn4)nn23)cc1,"inconclusive: 50.1 µM [inhibitor, partial curve, poor fit]",–
O=C(CSc1ncccc1C(=O)O)c1ccc2ccccc2c1,–,inactive: -12%
COc1ccc(NC(=O)Nc2c(O)ccc3ccccc23)cc1,"inconclusive: 56.2 µM [inhibitor, partial curve, poor fit]",–
Cc1ccc(CNc2ccc3c(c2)ncn3C(C)(C)C)cc1,–,inactive: 12.8% [at 11.4 µM]
Cc1ccc2[nH]c(C(=O)O)c(-c3ccccc3)c2c1,–,inactive: -25.2%
Cn1c(C(=O)NCCN2CCOCC2)cc2c(=O)n(C)c3ccccc3c21,–,inactive: -9.64%
C=CCn1c(C(c2ccccc2)c2ccccc2)n[nH]c1=S,"inconclusive: 79.4 µM [inhibitor, partial curve, poor fit]",–
CCOc1cc(/C=N/Nc2nnc(C)n2N)ccc1OC(C)=O,"inconclusive: 79.4 µM [inhibitor, partial curve, poor fit]",–
COc1nccnc1NS(=O)(=O)c1ccc(NC(=S)NC(=O)c2ccc(F)cc2)cc1,"inconclusive: 35.5 µM [inhibitor, partial curve, poor fit]",–
COc1ccc(C(CC(=O)c2ccccc2)S(=O)(=O)c2ccc(C)cc2)cc1 (stereo not given),–,inactive: -6.57%
COc1cc2oc(=O)c(CC(=O)NCc3ccc(OC)c(OC)c3)c(C)c2cc1Cl,–,inactive: -5.63%
O=C(c1cccnc1Cl)N1CCOCC1,"inconclusive: 35.5 µM [inhibitor, full curve, poor fit]",–
COc1ccc(C2c3ccc(O)cc3Oc3ncn(CC(C)C)c(=N)c32)cc1 (stereo not given),–,inactive: 9.32%
COCCNC(=O)c1cc(C)ccc1C,–,inactive: -16.6%
CC(=O)NC1CCN(CC(=O)Nc2cccc([N+](=O)[O-])c2)CC1,–,inactive: 12.6%
CSc1sccc1/C=C(/C#N)C(=O)c1ccco1,"inconclusive: 50.1 µM [inhibitor, partial curve, poor fit]",–
Cc1cc(C)nc(NS(=O)(=O)c2ccc(N=Cc3c(C)[nH]n(-c4ccccc4)c3=O)cc2)n1,"inconclusive: 100 µM [inhibitor, partial curve, poor fit]",–
CC(C)c1nnc(NC(=O)CCS(=O)(=O)c2nc(-c3cccs3)cc(C(F)(F)F)n2)s1,"inconclusive: 39.8 µM [inhibitor, partial curve, poor fit]",–
